Assay results as given in the supplement of paper PMC9334596.
Several values for one entry are separate records, joined by “and”; a condition that tells them apart may be missing. Identical values can stand only once. The full ranking holds about 5,300 compounds; the median of “PER2::LUC luminescence relative to vehicle control” is about 0.96, and the highest 2% start at about 1.3. Some of the results follow.

Tested on: mPer2Luc MEF
Experiment: PER2::LUC luminescence relative to vehicle control (fold of vehicle); higher = higher PER2::LUC reporter signal
Conditions: 10 µM
Outline: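 The value is PER2::LUC luminescence expressed as fold of vehicle control. Mouse embryonic fibroblasts carrying the mPer2Luc reporter were seeded at ~3000 cells per well in 384-well plates and grown in DMEM with 10% FBS at 37 °C and 5% CO2. Compounds from commercial libraries were added at 10 μM 48 h after seeding, and luminescence was read with the ONE-Glo luciferase assay system 24 h and 30 h after treatment, followed by an alamarBlue viability assay.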

| Compound | PER2::LUC luminescence (time after treatment 24 h) | PER2::LUC luminescence (time after treatment 30 h) |
| --- | --- | --- |
| N#Cc1cccc(-c2c[nH]c3ncnc(N4CCOCC4)c23)c1 | 1.03 | 1.02 |
| CC(=O)C1=C(O)C=C2Oc3c(C(C)=O)c(O)c(C)c(O)c3[C@]2(C)C1=O | 1.03 | 0.928 |
| O=c1cc(-c2ccc(O)cc2)oc2ccc(O)cc12 | 1.72 | 1.87 |
| CC(=O)NS(=O)(=O)c1ccc(NC(=O)c2ccccc2C(=O)O)cc1 | 0.828 | 1.12 |
| NC(=O)c1cccc2cn(-c3ccc([C@@H]4CCCNC4)cc3)nc12 | 0.753 | 0.775 |
| Cc1c[nH]c2ccccc12 | 0.822 | 0.868 |
| C=CCNC(N)=S | 0.925 | 0.877 |
| CN(C)CCOC(C)(c1ccccc1)c1ccccn1 (centres undefined) | 1.1 | 0.831 |
| COc1cccc(N2CCN(C3=Nc4c(F)cccc4[C@H](CC(=O)O)N3c3cc(C(F)(F)F)ccc3OC)CC2)c1 | 0.979 | 0.935 |
| CC(=O)c1ccc2c(c1)N(CCCN(C)C)c1ccccc1S2 | 0.712 | 0.636 |
| COc1cccc(-c2cc(=O)c3ccccc3o2)c1N | 0.951 | 0.985 |
| CCCCCCCCCCCCCCC[C@H](O)[C@H](N)CO (racemic) | 0.939 | 0.88 |
| CC(C)(C#N)c1cc(Cn2cncn2)cc(C(C)(C)C#N)c1 | 0.927 | 0.862 |
| Cc1csc2c(N[C@@H](C)CN3CCN(S(=O)(=O)c4ccc(Cl)c(Cl)c4)CC3)ncnc12 | 0.157 | 0.178 |
| CN(C)CC1CCC2=C(C1=O)C(c1ccc(Cl)c(Cl)c1)C1=C(CCC(CN(C)C)C1=O)O2 (centres undefined) | 1.15 | 1.08 |
| C=CC(C1=CC(=O)C(OC)=CC1=O)c1ccc(OC)cc1 (centres undefined) | 1.16 | 1.02 |
| COc1cc2nccc(Oc3ccc(NC(=O)Nc4cc(C)on4)c(Cl)c3)c2cc1OC | 0.535 and 0.522 | 0.469 and 0.418 |
| C[C@@H](O)[C@H]1C(=O)N2C(C(=O)O)=C(S[C@@H]3CN[C@H](CNS(N)(=O)=O)C3)[C@H](C)[C@H]12 | 1.02 and 1.15 | 0.926 and 1.05 |
| Oc1c(I)cc(Cl)c2cccnc12 | 0.964 | 1.02 |
| O=C(Nc1ccccc1C(=O)NC1CCCCNC1=O)c1cc2ccccc2s1 (centres undefined) | 0.778 | 0.814 |
| Cc1ccc(C2Nc3ccccc3-n3c(-c4ccccc4)c4c(=O)n(C)c(=O)n(C)c4c32)o1 (centres undefined) | 0.901 | 0.94 |
| CC(C)OC(=O)N1CCC(Oc2ncnc3c2cnn3-c2ccc(S(C)(=O)=O)cc2F)CC1 | 1.05 | 1.11 |
| Oc1cc(O)c2c(c1)O[C@H](c1cc(O)c(O)c(O)c1)[C@H](O)C2 | 0.951 | 0.915 |
| Nc1ccn([C@H]2CC[C@@H](CO)O2)c(=O)n1 | 0.888 and 0.99 | 1.12 and 0.974 |
| CN(C(=O)C(Cl)Cl)c1ccc(OC(=O)c2ccco2)cc1 | 0.818 | 0.788 |
| CCc1cc(Nc2nccc(-c3c(-c4ccc(OC)c(C(=O)Nc5c(F)cccc5F)c4)nc4ccccn34)n2)c(OC)cc1N1CCC(N2CCN(S(C)(=O)=O)CC2)CC1 | 1.01 | 0.958 |
| O=C1c2ccc(O)c(O)c2C(=O)c2c(O)ccc(O)c21 | 0.912 | 0.882 |
